Hit rate of the full screen: of about 310,000 compounds, about 2,200 (0.71%) showed an effect of 50% or more. Effects have a minus sign here. The list shows a part of the results.
molecular target: human ether-à-go-go-related gene (hERG) potassium channel (human, UniProt Q12809); test: primary screen, population patch clamp on CHO cells stably expressing hERG
Sequence (Q12809 whole entry, looked up): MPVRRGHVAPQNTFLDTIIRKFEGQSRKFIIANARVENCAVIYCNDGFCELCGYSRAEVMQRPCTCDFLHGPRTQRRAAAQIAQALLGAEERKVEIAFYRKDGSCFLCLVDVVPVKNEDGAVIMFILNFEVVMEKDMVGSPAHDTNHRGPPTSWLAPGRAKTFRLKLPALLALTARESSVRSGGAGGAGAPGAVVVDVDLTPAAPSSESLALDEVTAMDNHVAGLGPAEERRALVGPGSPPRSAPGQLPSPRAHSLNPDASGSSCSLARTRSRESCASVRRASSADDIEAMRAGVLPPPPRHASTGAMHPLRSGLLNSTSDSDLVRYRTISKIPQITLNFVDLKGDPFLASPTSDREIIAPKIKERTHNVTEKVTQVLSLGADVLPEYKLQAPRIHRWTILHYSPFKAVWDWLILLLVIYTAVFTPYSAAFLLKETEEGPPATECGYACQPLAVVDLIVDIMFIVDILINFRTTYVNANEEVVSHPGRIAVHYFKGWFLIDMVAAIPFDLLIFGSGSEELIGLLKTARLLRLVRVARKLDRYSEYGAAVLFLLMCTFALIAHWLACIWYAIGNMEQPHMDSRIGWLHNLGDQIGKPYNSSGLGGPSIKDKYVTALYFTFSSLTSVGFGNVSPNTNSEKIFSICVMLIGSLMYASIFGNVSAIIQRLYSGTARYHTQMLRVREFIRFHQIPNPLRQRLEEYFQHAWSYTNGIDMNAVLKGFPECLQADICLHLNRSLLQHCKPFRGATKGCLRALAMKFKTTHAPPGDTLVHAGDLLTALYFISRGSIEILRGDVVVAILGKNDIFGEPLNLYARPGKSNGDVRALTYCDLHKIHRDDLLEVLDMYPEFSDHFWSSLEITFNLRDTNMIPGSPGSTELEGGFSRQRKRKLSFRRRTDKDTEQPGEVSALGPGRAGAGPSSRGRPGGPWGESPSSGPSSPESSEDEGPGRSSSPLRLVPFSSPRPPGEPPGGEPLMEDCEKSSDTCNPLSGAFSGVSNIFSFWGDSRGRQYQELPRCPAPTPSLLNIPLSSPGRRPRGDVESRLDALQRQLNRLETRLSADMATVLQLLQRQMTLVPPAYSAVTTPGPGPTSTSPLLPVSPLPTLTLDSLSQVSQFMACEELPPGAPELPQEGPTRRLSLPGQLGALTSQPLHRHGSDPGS

Row | Structure (SMILES) | hERG current change (%, negative = inhibition) at 1uM [%]
1 | CCOC(=O)c1cnc2c(c(C)nn2CC)c1NC1CC1 | 13.4
2 | Cc1ccc(NC(=O)c2ccc(-n3cccn3)nc2)cc1 | 8.58
3 | COC(=O)c1cc(NC(=O)CN(c2ccccc2OC)S(=O)(=O)c2ccccc2)ccc1Cl | 15.1
4 | Cc1cc(NCc2ccccc2)nc2ccccc12 | -1.66
5 | COc1nc(-c2cnccn2)sc1C | 10.3
6 | S=c1[nH]nc(C2CCCCC2)n1/N=C/c1c(Cl)cccc1Cl | -0.551
7 | CCOc1ccc(N2C(=O)C3C4C=CC(CC4)C3C2=O)c([N+](=O)[O-])c1 (centres unmarked) | -29.2
8 | NS(=O)(=O)c1ccc(NC(=O)COC(=O)c2cnc(Cl)c(Cl)c2)cc1 | 7.97
9 | CCN(CC)C(=O)C1c2ccccc2Oc2ccccc21 | 10.4
10 | Cc1ccc(S(=O)(=O)NCc2ccc(C(=O)N3CCc4ccccc4C3)cc2)cc1 | 5.64
11 | COc1ccc(-c2csc(NC(=O)Cc3ccccc3)n2)cc1OC | 12.4
12 | O=C(NCc1ccccc1Cl)C1CCN(C(=O)c2ccco2)CC1 | 0.815
13 | COc1ccc(CN2CCN(Cc3ccc(Br)cc3)CC2)c(OC)c1OC.O=C(O)C(=O)O | -24.8
14 | Cc1ccc(NC(=O)CCC(=O)OCC(=O)c2ccc(Oc3ccc([N+](=O)[O-])cc3)cc2)c(C)c1 | 7.71
15 | CCNCC(=O)Nc1c(C)cccc1C | 14
16 | c1ccc2c(c1)[nH]c1c(N3CCOCC3)ncnc12 | 14.3
17 | O=C(CN(Cc1ccco1)C(=O)Cn1nnc(-c2cccs2)n1)NCc1ccccc1 | 4.81
18 | CCc1ccc(NC(=O)CCCN2C(=O)C3CC=CCC3C2=O)cc1 (centres unmarked) | 6.64
19 | CCCCNC(=O)CCC(=O)Nc1ncc(-c2ccc(C)cc2)n1C | 7.43
20 | C[C@@H]1C=C[C@](Cc2ccccc2)(C(=O)NCC2CC2)N1C(=O)c1ccccc1 | 11.4
21 | O=C(CN1CCOCC1)Nc1cc(C(F)(F)F)ccc1Cl | 9.68
22 | Cc1cc(C)c(S(=O)(=O)Nc2ccc(O)cc2)c(C)c1 | 6.66

Row | Structure (SMILES) | hERG current change (%, negative = inhibition) at 1uM [%]
23 | c1csc(-c2noc(COc3ccc4c(c3)CCCC4)n2)c1 | 16.1
24 | O=C(NCC1CCCO1)c1cc(-c2ccco2)nc2ccccc12 (centres unmarked) | 10
25 | O=C(COC(=O)c1cnccn1)Nc1ccccc1-c1ccccc1 | 12.7
26 | CCOc1ccc(CCNC(=O)C2CCN(C(=O)N(C)C)CC2)cc1OCC | 5.85
27 | COc1cc(SC)ccc1C(=O)NC1CCCc2ccccc21 (centres unmarked) | 12.5
28 | CCN(CC(=O)NCc1ccc(F)cc1)C(=O)c1ccc(C(=O)c2ccccc2)cc1 | -6.48
29 | CCOc1cccc2cc(-c3csc(NC(=O)CCC(=O)NCCN4CCCCC4C)n3)c(=O)oc12 (centres unmarked) | -1.56
30 | Cc1cccc(NC(=O)NC(C)C(c2ccccc2)N2CCN(C)CC2)c1 (centres unmarked) | 2.61
31 | Cc1ccc(C(=O)N/C(=C/c2cccnc2)C(=O)NCc2ccco2)cc1 | -4.21
32 | O=C(Nc1ccccn1)C1CCN(S(=O)(=O)c2ccc3c(c2)OCCCO3)CC1 | 0.398
33 | Cc1[nH]n(-c2ccccc2)c(=O)c1C(C[N+](=O)[O-])c1ccc(F)cc1 (centres unmarked) | 1.46
34 | COC(=O)C1=C(c2cccc(OCc3ccccc3)c2)C[C@@H]2CC[C@H]1N2C(=O)NCCc1ccc(F)cc1 | 10.3
35 | C1=C(c2ccccc2)Nc2nnnn2C1 | 17
36 | CC(C)c1nc(N2CCCC2)c(C#N)c2c1CCCC2 | -0.355
37 | Cn1c(N2CCOCC2)nc2c1c(=O)n(Cc1ccc(Cl)c(Cl)c1)c(=O)n2C | -4.67
38 | Cc1cc2nc3n(c2cc1C)CC1CC(C(=O)NCCC(C)C)N(C)C31 (centres unmarked) | 9.14
39 | Cc1c(C(=O)Nc2ccc(F)cc2)c2ccccn2c1CCc1ccncc1 | 9.04
40 | COCCCN1C(=O)c2ccc(C(=O)N3CCN(c4ccccc4OC)CC3)cc2C1=O | -1.95
41 | Cc1c(Cl)c([N+](=O)[O-])nn1CC(=O)NCc1ccc(Cl)cc1 | -1.51
42 | O=C(Nc1cc(C(F)(F)F)ccc1N1CCCCC1)c1cccc([N+](=O)[O-])c1 | 11.3
43 | CC(C)(C)NC(=O)NC(=O)CN1CCN(Cc2ccccc2)CC1 | -1.44
44 | O=C(CCCn1c(=O)[nH]c2cc(Cl)ccc2c1=O)NCCN1CCN(c2ccccc2)CC1 | -22.9

Row | Structure (SMILES) | hERG current change (%, negative = inhibition) at 1uM [%]
45 | Oc1ccc(Br)cc1C=Nc1ccc2[nH]ncc2c1 | 0.641
46 | N#CC1=C(N)SC(N)=C(C#N)C1c1ccnc2ccccc12 | 20.3
47 | CCOc1ccc(NC(=O)C2C(C(=O)O)C3(Cl)C(Cl)=C(Cl)C2(Cl)C3(Cl)Cl)cc1 (centres unmarked) | 11.1
48 | COc1ccc(/C(N)=N/OC(=O)C2CCC(=O)N2S(=O)(=O)c2ccc(C)cc2)cc1 (centres unmarked) | 4.8
49 | O=C(CN1C(=O)NC2(CCCCC2)C1=O)Nc1ccc2c(c1)CCC2 | 14.5
50 | COc1cccc(-c2nc3n(n2)C(c2cccs2)C(C(=O)Nc2cccnc2)=C(C)N3)c1 (centres unmarked) | -51.2
51 | COc1cc(/C=C(/C#N)C(=O)Nc2ccc(C)cc2)ccc1Oc1nc(Cl)ncc1F | 6.4
52 | C/C(=N\NC(=O)CCc1ccc(S(=O)(=O)N2CCOCC2)cc1)c1ccc(Br)cc1 | 8.22
53 | Cc1cccc(Nc2nnc(SCC(=O)NC3CCCc4ccccc43)s2)c1C (centres unmarked) | 8.32
54 | C=CCSc1nc2ccccc2c(=O)[nH]1 | 4.6
55 | O=C(O)COc1ccccc1/C=N/NC(=O)Cc1ccccc1 | 16.7
56 | Nc1nnc(CC(=O)N/N=C/c2ccc(-c3ccc(Cl)cc3Cl)o2)s1 | 14.6
57 | CCOC(=O)c1ccc(NC2=CC(=O)CC(c3ccco3)C2)cc1 (centres unmarked) | 1.75
58 | CSc1nc2sc3c(c2c2nncn12)CCC3 | 1.97
59 | COc1cc(C=O)ccc1OC(=O)c1ccc(C(C)C)cc1 | 2.89
60 | CCN(C(=O)CSc1nc2ccccc2c(=O)n1Cc1ccc(C)cc1)C1CCS(=O)(=O)C1 (centres unmarked) | -71.4
61 | COc1ccccc1NC(=O)CSc1nnc(CNC(=O)COc2ccc(Cl)cc2)o1 | 7.08
62 | COc1ccccc1CN(C)C(=O)c1cc2ccccc2o1 | 10.8
63 | COc1ccc2c(CN3CCN(S(=O)(=O)c4cccs4)CC3)cc(=O)oc2c1 | -5.7
64 | Nc1c(C(=O)OCC2CCCO2)c2nc3ccccc3nc2n1C1CCCCC1 (centres unmarked) | 16.9
65 | CNC(=O)c1c(NC(=O)CS(=O)(=O)c2ccccc2)sc(C)c1C | 9.48
66 | CCOc1ccccc1NC(=O)c1cccc(NC(=O)C(C)C)c1 | 8.09

Row | Structure (SMILES) | hERG current change (%, negative = inhibition) at 1uM [%]
67 | CC(C)[C@@H](C(=O)O)N(Cc1cccc(CN([C@H](C(=O)O)C(C)C)S(C)(=O)=O)c1)S(C)(=O)=O | 12
68 | Cc1ccsc1/C=N/NC(=O)CNC(=O)c1ccc(S(=O)(=O)N(C)C)cc1 | -15
69 | CC(C)(C)NC(=O)Cn1c(SCC(=O)NC2CCCCC2)nc2ccccc21 | 8.55
70 | Cc1cccc(C)c1NC(=O)Cn1nnc(-c2ccc(CN3CCC(C)CC3)cc2)n1 | 11.3
71 | CC(Sc1ccc2c(c1)OCCO2)C(=O)Nc1ccc2c(c1)OCO2 (centres unmarked) | 9.6
72 | CC(C)C(=O)Nc1ccc(C(=O)NNC(=S)NC(=O)c2ccccc2[N+](=O)[O-])cc1 | 4.24
73 | COCCCNC(=O)c1ccccc1N(Cc1ccccc1)S(=O)(=O)c1ccccc1 | 18.3
74 | CCCNC(=O)C(Cc1ccccc1)NC(=O)c1ccccc1 (centres unmarked) | -1.55
75 | CCOC(=O)c1sc2nc(C)nc(SCC(=O)N(CC)C3CCS(=O)(=O)C3)c2c1C (centres unmarked) | 8.52
76 | Cc1ccn2c(C(=O)CSc3ccccc3)c(C)nc2c1 | 11.9
77 | CC(C)(C)c1ccc(N2C(=O)CSC2c2cccnc2)cc1 (centres unmarked) | 12.5
78 | CN(Cc1ccccc1)C(=O)c1nc[nH]c1C(=O)N1CCN(C(=O)OC(C)(C)C)CC1 | 21.8
79 | C[C@H]1CCC/C=C/[C@@H]2C[C@H](O)C[C@H]2[C@H](O)/C=C/C(=O)O1 [56422115] | 14.4
80 | CC(=O)Nc1c(C)ccc(CNC(=O)COc2ccc(F)cc2)c1C | 7.77
81 | CCOC(=O)N1CCC(NC(=O)CN2C(=O)C(CC)Oc3ccc(C)cc32)CC1 (centres unmarked) | 10.2
82 | COc1ccc(C)cc1S(=O)(=O)NCC(c1ccco1)N1CCc2ccccc2C1 (centres unmarked) | -30.2
83 | Cn1cc(CNCc2cn(C)nc2-c2ccc(C3CCCCC3)cc2)cn1 | 13.2
84 | Cc1ccc(NC(=O)c2ccc(C)cc2)cc1 | 10.4
85 | Cc1c(NC(=O)Nc2cc(Cl)ccc2Cl)c(=O)n(-c2ccccc2)n1C | 10.4
86 | CN(C)c1ccc(NC(=O)CSc2nc3ccccc3c(=O)n2CC2CCCO2)cc1 (centres unmarked) | 17.3
